The values below come from patent US20090175866A1, “TREATMENT OF B-CELL MALIGNANCIES” (priority 2004, published 2009).

The term Kd denotes the constant that tells how readily two partners part at equilibrium.

Experiment [1] has as its target T1, FGFR3 (Homo sapiens, UniProt P22607). The experiment is described as follows: Affinity and Koff to FGFR3 measured by BIAcore. Format: binding.
Experiment [2] concerns the target T1, FGFR3. Description: FGFR3 domain specificity of binding.

T1 sequence (P22607 23-806): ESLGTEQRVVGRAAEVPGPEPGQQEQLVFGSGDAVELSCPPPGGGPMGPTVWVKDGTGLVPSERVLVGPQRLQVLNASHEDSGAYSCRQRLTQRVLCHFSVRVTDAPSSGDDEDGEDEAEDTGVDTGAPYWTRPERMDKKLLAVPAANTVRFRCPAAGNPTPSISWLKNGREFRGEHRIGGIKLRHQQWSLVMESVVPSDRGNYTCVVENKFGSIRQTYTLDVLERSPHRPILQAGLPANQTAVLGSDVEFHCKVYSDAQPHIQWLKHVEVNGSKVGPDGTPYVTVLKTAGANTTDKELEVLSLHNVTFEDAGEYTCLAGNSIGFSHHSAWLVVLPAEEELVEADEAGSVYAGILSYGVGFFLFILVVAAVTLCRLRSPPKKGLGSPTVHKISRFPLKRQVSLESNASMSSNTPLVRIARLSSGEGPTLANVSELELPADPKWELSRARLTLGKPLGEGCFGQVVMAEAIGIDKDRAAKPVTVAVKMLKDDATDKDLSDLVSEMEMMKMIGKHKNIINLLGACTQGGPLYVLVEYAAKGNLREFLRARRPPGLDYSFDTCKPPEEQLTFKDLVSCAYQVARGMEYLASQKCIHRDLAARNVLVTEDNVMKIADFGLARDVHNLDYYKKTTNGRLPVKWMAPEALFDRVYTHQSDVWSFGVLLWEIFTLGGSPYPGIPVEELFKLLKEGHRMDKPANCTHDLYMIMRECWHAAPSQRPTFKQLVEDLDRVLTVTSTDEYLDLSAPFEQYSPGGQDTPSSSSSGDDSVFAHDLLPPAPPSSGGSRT

B1: PRO-021: HuCAL anti-FGFR3 clone; VH-CDR3 SEQ ID NO:4, VL-CDR3 SEQ ID NO:13 (antibody, V domains shown)
VH: QVQLVQSGAEVKKPGSSVKVSCKASGGTFSSYAISWVRQAPGQGLEWMGGIIPIFGTANYAQKFQGRVTITADESTSTAYMELSSLRSEDTAVYYCARDNWFKPFSDVWGQGTLVTVSS
VL: DIVMTQSPDSLAVSLGERATINCRSSQSVLYSSNNKNYLAWYQQKPGQPPKLLIYWASTRESGVPDRFSGSGSGTDFTLTISSLQAEDVAVYYCQQYDSIPYTFGQGTKVEIKRT
The molecule B1 had a Kd with FGFR3 [1] of 9 nM. Also, in the experiment with FGFR3 [2], the “FGFR3 Domain Specificity” value is reported as 3c.

B2: PRO-024: HuCAL anti-FGFR3 clone; VH-CDR3 SEQ ID NO:5, VL-CDR3 SEQ ID NO:14 (antibody, V domains shown)
VH: QVQLVQSGAEVKKPGSSVKVSCKASGGTFSSYAISWVRQAPGQGLEWMGGIIPIFGTANYAQKFQGRVTITADESTSTAYMELSSLRSEDTAVYYCARVNHWTYTFDYWGQGTLVTVSS
VL: DIVLTQSPATLSLSPGERATLSCRASQSVSSSYLAWYQQKPGQAPRLLIYGASSRATGVPARFSGSGSGTDFTLTISSLEPEDFATYYCQQMSNYPDTFGQGTKVEIKRT
In the experiment with FGFR3 [1], B2 showed a Kd of 10 nM. The “FGFR3 Domain Specificity” value in the experiment with FGFR3 [2] is given as 3c.
